The results in this text go back to US20220267436A1 (published 2022).

Assay [1] deals with T1, human LAG-3 (human, UniProt P18627 23-525).
T1 chain: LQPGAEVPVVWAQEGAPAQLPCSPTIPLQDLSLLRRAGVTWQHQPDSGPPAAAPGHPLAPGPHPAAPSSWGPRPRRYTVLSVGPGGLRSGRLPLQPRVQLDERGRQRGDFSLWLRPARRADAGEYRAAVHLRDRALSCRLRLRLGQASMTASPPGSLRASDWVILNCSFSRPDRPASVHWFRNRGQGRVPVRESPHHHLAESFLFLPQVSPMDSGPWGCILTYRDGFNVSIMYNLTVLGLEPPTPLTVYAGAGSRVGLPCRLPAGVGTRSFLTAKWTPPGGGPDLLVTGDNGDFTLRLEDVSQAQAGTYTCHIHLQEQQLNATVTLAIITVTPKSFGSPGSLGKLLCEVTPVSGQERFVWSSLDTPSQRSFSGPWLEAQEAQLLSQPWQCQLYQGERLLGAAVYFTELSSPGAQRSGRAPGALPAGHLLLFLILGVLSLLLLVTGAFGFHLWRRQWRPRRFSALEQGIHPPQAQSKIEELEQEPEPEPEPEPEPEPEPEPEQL
The experiment in a line: flow cytometry, CHO-K1 cells expressing human LAG-3; FIG. 1. A general note: A flow cytometer gives signals particle by particle.

For assay [2], the target named is T1, human LAG-3. The experiment in a line: flow cytometry, CHO-K1 cells expressing human LAG-3; FIG. 2.

B1: Fc fusion protein sdAb-LAG3-IgG4PE (Fc fusion)
chain: EVQLVESGGGLVQPGGSLRLSCAASGYTVSSYCMGWFRQAPGKGREGVSAIDSDGSVSYADSVKGRFTISKDNSKNTLYLQMNSLRAEDTAVYFCAADLCWVDQDQGEYNTWGQGTLVTVSS[letters of human IgG4 Fc with changes omitted]
As for B1, the concentration for a half-maximal effect (EC50) in the assay with human LAG-3 [1] and in the assay with human LAG-3 [2] was 0.0403 nM throughout.
